Data reported in the supplement of paper PMC3334620.
Whole data set: some 33,000 sequences, median “E-score (-0.5 to 0.5)” near -0.035, cut for the highest 2% near 0.34. The list shows a part of the results.

Molecular target: T1, Mot3 (UniProt P54785)
T1 sequence: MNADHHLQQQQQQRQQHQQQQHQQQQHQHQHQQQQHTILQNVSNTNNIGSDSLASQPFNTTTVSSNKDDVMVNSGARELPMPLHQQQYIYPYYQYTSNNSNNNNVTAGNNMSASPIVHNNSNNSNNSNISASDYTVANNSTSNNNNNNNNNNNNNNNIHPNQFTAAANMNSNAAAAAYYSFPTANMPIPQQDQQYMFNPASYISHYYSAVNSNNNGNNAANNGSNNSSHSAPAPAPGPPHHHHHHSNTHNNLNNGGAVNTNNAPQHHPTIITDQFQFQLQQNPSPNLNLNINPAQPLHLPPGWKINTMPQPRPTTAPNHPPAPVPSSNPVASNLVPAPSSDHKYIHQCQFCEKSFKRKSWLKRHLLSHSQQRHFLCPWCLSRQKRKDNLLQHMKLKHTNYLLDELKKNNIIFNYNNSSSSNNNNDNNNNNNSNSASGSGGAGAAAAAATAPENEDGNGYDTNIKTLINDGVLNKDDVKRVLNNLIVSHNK
Experiment: PBM E-score (8-mer binding enrichment) (E-score (-0.5 to 0.5)); higher = stronger / more preferred TF binding; most listed sequences are background and not binding sites
Details: protein concentration: 200 nM; construct: GST-full length
Description: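 Universal 'all 10-mer' protein binding microarrays (Agilent AMADID 015681) probed with GST-tagged S. cerevisiae TFs (full-length or DBD) made by in vitro transcription/translation (PURExpress), about 100-200 nM. Bound TF was detected with fluorescent anti-GST. Each ungapped 8-mer (which stands for itself and its reverse complement) is scored by the PBM enrichment score (E-score), a modified Wilcoxon-Mann-Whitney statistic from -0.5 to +0.5, computed with the Universal PBM Analysis Suite. Scale: above 0.35 generally sequence-specific binding.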

| Sequence | PBM E-score |
| --- | --- |
| AGTCTCGG | -0.218 |
| AAGGCTCT | 0.0737 |
| CACTCACC | -0.329 |
| AGAAGAAT | -0.0765 |
| AGTCCCCC | -0.337 |
| ATGTCCCC | -0.00319 |
| CCTTTGGA | -0.0863 |
| ATTACTTC | 0.0432 |
| AAATGAAT | -0.00475 |
| AGATAATA | -0.00575 |
| CGTTCCTA | 0.455 |
| AAAGCGCC | -0.00599 |
| GAGGTGCA | -0.167 |
| AGAGAAAT | -0.113 |
| AAACGTGG | -0.0479 |
| AGCCCTAA | 0.0699 |
| ACACACGA | 0.233 |
| CTATCCAC | -0.0235 |
| CGACTATA | 0.0875 |
| ATACTGCA | -0.0239 |
| CGCCACTC | -0.204 |
| CAGATCAG | 0.0568 |
| ACTGGATC | -0.101 |
| AGTCTCCA | -0.122 |
| CTCCGCGA | -0.237 |

| Sequence | PBM E-score |
| --- | --- |
| CGCTCGCC | -0.179 |
| CCATTGCC | 0.0862 |
| CCGATGAG | -0.0549 |
| CCGAATCC | -0.201 |
| GGTGTGTA | 0.335 |
| GCTCAAGA | -0.223 |
| CTGTATTC | 0.185 |
| TTGGCAAA | 0.113 |
| CTAGTCAA | -0.134 |
| GGGTAGAC | -0.292 |
| CGGCCAAG | -0.286 |
| ACCATGAT | -0.223 |
| ATCTCACC | -0.234 |
| ACATCCTC | -0.00332 |
| ACCTTGAC | 0.133 |
| TAATGGCA | -0.0937 |
| CTCTTGCA | 0.104 |
| ACGAACTC | 0.117 |
| ATATGTCG | 0.203 |
| AGTCACTG | -0.00455 |
| GGCTGGAC | -0.391 |
| CTCCTTAA | -0.126 |
| ATTTAAAC | 0.18 |
| AATATACA | 0.26 |
| GGTGGTGA | -0.179 |

| Sequence | PBM E-score |
| --- | --- |
| CGTGTTCA | 0.273 |
| TAACCTTA | -0.00018 |
| ACGCTAAT | -0.168 |
| CAGGACGG | -0.134 |
| ATCTCAAT | -0.00731 |
| ACAGTGCT | -0.0624 |
| ACACCCTA | -0.0334 |
| AAGCAACC | 0.00898 |
| AGTTGAAG | -0.0916 |
| CCGCAGCC | -0.315 |
| CACATAAC | 0.126 |
| CCGTTCGC | -0.27 |
| AACTGACG | -0.21 |
| AGAGCGCT | -0.213 |
| ATCCGACG | -0.0689 |
| AACACATC | 0.244 |
| GGTTACTA | 0.0652 |
| CGCGCATA | 0.0137 |
| AGGAACCG | 0.442 |
| CACGCGAC | 0.00358 |
| GGACGGTA | -0.237 |
| AGGACGAT | 0.0143 |
| GCCTGTCA | 0.183 |
| CCTCTGGA | -0.162 |
| ACATAAGG | 0.273 |

| Sequence | PBM E-score |
| --- | --- |
| ATCGGAAT | 0.0793 |
| ACCTTACA | 0.236 |
| CCGCACGC | -0.216 |
| CCCTTGTC | -0.034 |
| GGAGATAA | -0.0459 |
| ATAGTGCC | 0.261 |
| AAGCAATG | -0.0928 |
| CCTTTAAA | 0.266 |
| GCGACGAA | -0.154 |
| ACGTAAAA | 0.329 |
| AAGAGATT | 0.0716 |
| TAAGGCTA | 0.129 |
| TATTAGGA | 0.142 |
| ATCGGCCC | -0.265 |
| AAACAGAA | -0.0905 |
| CCTCACTA | -0.0744 |
| CTTCCAGA | -0.146 |
| CTCATACA | 0.0711 |
| CGGCGTAA | 0.104 |
| AATTCCAA | 0.0626 |
| CCCTCGCA | -0.283 |
| GGTCAAAC | 0.0509 |
| GCAACTGA | 0.0162 |
| GCTCAGAA | -0.0723 |
| GTCGGAAC | -0.147 |

| Sequence | PBM E-score |
| --- | --- |
| ACACGCAG | 0.313 |
| GGGATAAA | 0.0287 |
| GCTCCTAA | 0.118 |
| AGGATCCC | -0.108 |
| GCATCCGC | -0.0154 |
| ACGCCTGC | 0.253 |
| ACTTTAAG | -0.0466 |
| CCTTTTGC | 0.0699 |
| ACCTGAGT | -0.00423 |
| CGACCTTC | -0.346 |
| AGGCCTTC | -0.154 |
| ACTGGCAG | -0.0433 |
| GATCTCGA | -0.123 |
| AGATACAG | 0.0787 |
| GCATGTGA | 0.232 |
| CGACAGCA | -0.178 |
| GTCGCATA | 0.0611 |
| GACATGCA | 0.203 |
| ATGGGTCG | -0.251 |
| TGATATAA | 0.0684 |
| ACTGCTTG | 0.0373 |
| ACTACAGA | 0.0825 |
| ATCCCCTG | -0.332 |
| CGTCAGTA | -0.27 |
| AAAACGAG | 0.0748 |

| Sequence | PBM E-score |
| --- | --- |
| AGGTTTAA | -0.00778 |
| CCGGCGAG | -0.369 |
| GAGGGAGC | -0.142 |
| TAGGGAGA | -0.28 |
| AGGCGTGC | 0.122 |
| AGACTATC | -0.0723 |
| ATTCAGTG | -0.0973 |
| ACAGTAGG | 0.134 |
| AGCGCACG | 0.00399 |
| AAGCCATC | -0.0287 |
| ATGCTGAA | -0.0335 |
| GTCATCAC | -0.171 |
| AATATTAG | 0.15 |
| GCCTCTCC | -0.175 |
| GAACACAA | 0.256 |
| ATCGCGCA | -0.109 |
| CACGTCCA | -0.0793 |
| AGACCTGA | -0.139 |
| TCCTTAGA | -0.0361 |
| CAGCCGAC | -0.121 |
| ATTAGTTA | 0.115 |
| AGACAAAT | 0.0163 |
| CTTCGCTA | -0.0461 |
| TCAGAGAA | -0.0316 |
| AGGCTAAG | -0.266 |

| Sequence | PBM E-score |
| --- | --- |
| CGATTACC | -0.0307 |
| CATATAAG | 0.0246 |
| ACCGTATC | -0.348 |
| CGTGAACC | -0.136 |
| CTAATGCC | -0.174 |
| GGTATCGA | -0.093 |
| ACCTCACG | 0.00143 |
| AGAGGATG | -0.136 |
| AACACAGG | 0.275 |
| GTAACAAA | 0.167 |
| CACTGACC | -0.14 |
| CTCTCAAC | -0.0574 |
| GCCTCTTA | -0.0795 |
| CTTCGGTA | -0.201 |
| AGTTCGAA | 0.0616 |
| GCTGTGCC | 0.249 |
| CCAATAAG | 0.00438 |
| GAGCTACC | -0.0489 |
| GTATCCGA | -0.0401 |
| CCACGGAA | -0.101 |
| GAAGTCGC | -0.052 |
| ACGCCTTA | 0.185 |
